Test results reported in the supplement of paper PMC11417369.
The list shows a part of the results.

tested on: PfSIP2 AP2 domain 1 (GST-tagged); test: gcPBM binding intensity (ln(normalized median fluorescence intensity)); higher = stronger DNA binding
In short: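 Plasmodium falciparum DNA-binding domains carrying a GST tag were expressed in E. coli and applied for 1 h, at about 25 μg on average, to an Agilent 4 × 180k array. The array held primer-extended double-stranded 36-bp intergenic genomic probes together with negative controls, and binding took place in 1× PBS with 1% milk, 0.2 mg/ml BSA, 0.5% salmon testes DNA and 0.03% Triton X-100. An Alexa488 anti-GST antibody detected bound protein, and the array was scanned at 488 nm. Binding intensity is taken as the highest Masliner-normalised natural-log median intensity across replicate spots of either probe orientation.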

Sequence | gcPBM binding intensity (ln)
TTTATTTTTTGTGGCACACAGAAGAAACAAGAACAA [CACACA_site1696] | 7.78
AATGAATAATTATTTTGTACATAATATTATATTTAT [XGTACX_site5350] | 6.94
AATAGTAATTTGAATACACACAATAATATATTTATA [CACACA_site7055] | 6.97
ATATATATTATATAAGTGCATAATATTCTTTCTTTT | 8.17
TTTTTCATTTCTGCATTTATTTATAAATAAATATTT [CACACA_negctrl_site368] | 7.38
TTTTTTTATCAATGTTGTACTTTTTTTTTTTTCCAT [XGTACX_site8864] | 6.79
TATATATTTTGTGTCTGTACACATATTATTAATTCC [XGTACX_site7507] | 7.31
TTCAAATATAAATACACACACATAGCTACAAAATAA [CACACA_site4172] | 7
TATAAGAGAATATATACACACAAAAATATATACAGT [CACACA_site1668] | 7.34
TACACGCATGGACACACACACACACCCATATATATA [CACACA_site4522] | 7.36
ATATTAACTATCATAACACACACAGTAGACATATTT [CACACA_site6941] | 6.99
TAAATACATAAATACACACACATATATTATATATAT [CACACA_site4310] | 7.51
TATCATATATAAAGAGGTACGTAAGAATAGAAAATT [XGTACX_site798] | 7.31
TTCTTAAAAGGAAAGGTGCAACTTTATCATTTTCTT | 10.9
TATGAAATTTTAATTACACACAGGAAAATAAAATGG [CACACA_site4935] | 7.19
TAAAAAAAATATTTTTGTACGAATTAAATTTTTTTT [XGTACX_site4838] | 6.71
ACATATTTTTAATACACACTCAAAAAAGTACTTAAC [CACACA_site3014] | 7.21
AAAAAAAGTAAATGTTGTACTATAATATGTAATATA [XGTACX_site7966] | 6.85
AACCACATACATATAACACACATATACAATCTATAT [CACACA_site1987] | 7.44

Sequence | gcPBM binding intensity (ln)
TACATATATATTATATGTACTTATATTTTTATAATA [XGTACX_site3452] | 7.02
ATATACATATCCATATTTATATCTATATTTAAAACA [CACACA_negctrl_site747] | 6.81
AAATAACACTAATGATGTACTCAACTATTTATAATT [XGTACX_site8183] | 6.89
TATATGATATAATATACACACATACAGATATATATA [CACACA_site4440] | 7.17
AAATTATTAAGTGATATAATATTCTATAGATGGGGA [CACACA_negctrl_site168] | 7.09
TTTTCCAATTTAAAAGCATGCATCTGTTTTTTTTTT [TGCATGCA_site482] | 6.76
TAGAGGTATAAAATATGTACTTATAAAAACATGAAT [XGTACX_site8916] | 6.98
AGAGGTAGAGAGAAAACATGCATAATGATTTTCATA [TGCATGCA_site958] | 6.82
TATTTACACCTAATCACAAATAAAATAAAATCAAAT [CACACA_negctrl_site531] | 7.1
TTTTTATAACTATATTATATAACTTTTGTACGAACT [CACACA_negctrl_site1423] | 6.85
ACATATAAATAAATAAATATATATATATATATATAT [GTGCAC_negctrl_site378] | 9.66
TAAATCAAAATAATTTAACACACAATTTTAATACTG [CACACA_site8744] | 6.67
GATAAGGTATTCAAATGTACAAAATGTTTTATATAA [XGTACX_site6863] | 6.93
CTTGTATTTAAACACACACACACTTTCTTTTTTTAA [CACACA_site5133] | 6.96
TTAATATTAATATATTGTACATATATGCACATATTT [XGTACX_site6569] | 7.59
AATATTATAATATAAACACACAAAATTCAATTATAT [CACACA_site3789] | 6.86
AACGTTCATATTTCCACACACAAAAAATAAATATAA [CACACA_site3344] | 7.31
AAAAATAAAGGGCGAAAAAAAAAAAAAAAAAAAAAA [GTGCAC_negctrl_site671] | 6.92
ATATTTTATTATTGTTGTACTTTTTTTTGATTGTTT [XGTACX_site4090] | 6.95

Sequence | gcPBM binding intensity (ln)
TTGACACGTATATGCACACACCCGTAAGTGTCCATT [CACACA_site2764] | 7.14
TTTTTTATGAACACGTCACACATCATTAAAATGTTT [CACACA_site5934] | 6.84
AGTTATAAACATATGTGTACTTATAAAAACATATAG [XGTACX_site3268] | 7.12
TTTAATATTTTTCAATGTAGAAAGTTTGTCTGTTAT [CACACA_negctrl_site973] | 6.73
TCACACATATATTCATGTACATATTAATATTTCCAT [XGTACX_site5387] | 7.22
TTTTGTAAAAAAAAAAAAAAAGGAAAATTAAAATAA [CACACA_negctrl_site803] | 6.55
TTGATGATATAAAAAAGTACTTATATTATATTATAT [XGTACX_site6492] | 7.1
TTTCCTATTTAATATAGTACATAAGAAATAATTTTA [XGTACX_site5952] | 6.95
TTGTTTTTAGTTTATACACACCATATTAATATAATG [CACACA_site7452] | 7.31
ATTTGGCATGGACACACACACACACCGACAGACATA [CACACA_site4491] | 7.16
TTATATTATGGACACACACACAAAAAAAAAAAAAAA [CACACA_site7744] | 7.14
AAATTAATTAAATATACACACATATATAAATATATA [CACACA_site391] | 6.85
ATATATATATAAAGTTGTACATTTTTTATTTTTTCA [XGTACX_site7847] | 9.04
TTAAAACCAAAACACAGTACATATATATATATATAT [XGTACX_site5668] | 9.66
CAATTTTAAGTAATCAATTTTTTTAAAAAACACAAA [CACACA_negctrl_site961] | 7.03
AAAATATATTATATATGTACATATTACGTTTTAATT [XGTACX_site2518] | 7.04
TATATATATATGTATACACACATATGTATGTTATGT [CACACA_site4053] | 9
GCATAATATACTCTTACACACCATTTCTATATACAT [CACACA_site6799] | 7.22
